Assay results reported in publication PMC4336329 (PLoS ONE, 2015).
Hit rate of the full screen: of about 310,000 compounds, about 2,200 (0.71%) showed an effect of 50% or more. Effects have a minus sign here. The list shows a part of the results.

target: human ether-à-go-go-related gene (hERG) potassium channel (human, UniProt Q12809); assay: primary screen, population patch clamp on CHO cells stably expressing hERG
Sequence (Q12809 whole entry, looked up): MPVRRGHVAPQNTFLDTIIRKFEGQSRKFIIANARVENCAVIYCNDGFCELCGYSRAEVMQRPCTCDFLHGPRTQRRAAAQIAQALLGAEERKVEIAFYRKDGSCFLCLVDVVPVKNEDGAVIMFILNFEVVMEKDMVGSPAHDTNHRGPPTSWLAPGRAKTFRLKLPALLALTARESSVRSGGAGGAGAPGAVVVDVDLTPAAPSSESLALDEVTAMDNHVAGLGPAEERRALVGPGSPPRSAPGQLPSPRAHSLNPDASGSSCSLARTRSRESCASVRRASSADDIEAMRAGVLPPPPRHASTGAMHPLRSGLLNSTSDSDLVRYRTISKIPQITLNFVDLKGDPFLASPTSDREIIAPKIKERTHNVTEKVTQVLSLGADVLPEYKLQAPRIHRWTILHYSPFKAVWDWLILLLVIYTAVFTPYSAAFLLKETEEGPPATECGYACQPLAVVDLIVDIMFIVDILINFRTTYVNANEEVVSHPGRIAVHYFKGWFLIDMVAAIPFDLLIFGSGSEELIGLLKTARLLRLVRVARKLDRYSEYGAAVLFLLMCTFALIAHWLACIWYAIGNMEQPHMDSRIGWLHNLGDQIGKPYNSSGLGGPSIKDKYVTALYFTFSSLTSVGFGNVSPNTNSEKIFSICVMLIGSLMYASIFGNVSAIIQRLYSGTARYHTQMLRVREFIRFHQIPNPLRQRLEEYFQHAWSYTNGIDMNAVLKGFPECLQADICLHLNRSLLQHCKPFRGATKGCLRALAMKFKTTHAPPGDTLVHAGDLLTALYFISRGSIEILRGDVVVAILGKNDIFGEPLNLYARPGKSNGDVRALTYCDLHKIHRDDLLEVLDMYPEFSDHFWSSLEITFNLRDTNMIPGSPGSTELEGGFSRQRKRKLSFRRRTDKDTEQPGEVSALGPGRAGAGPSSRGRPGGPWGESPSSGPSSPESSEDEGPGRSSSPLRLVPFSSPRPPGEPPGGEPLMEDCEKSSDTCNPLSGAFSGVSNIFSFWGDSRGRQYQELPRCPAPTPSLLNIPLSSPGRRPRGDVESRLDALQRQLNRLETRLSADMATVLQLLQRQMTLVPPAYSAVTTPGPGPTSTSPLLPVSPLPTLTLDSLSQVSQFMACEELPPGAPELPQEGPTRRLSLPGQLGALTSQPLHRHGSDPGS

First: Nc1ccc(S(=O)(=O)Nc2ncccn2)cc1
Second: Cc1ccccc1N1CC(C(=O)Nc2ccc(S(=O)(=O)N3CCCC3)cc2)CC1=O (centres unmarked)
The “hERG current change (%, negative = inhibition) at 1uM” value of the first is higher: 17.8% for the first, 0.727% for the second.

Compared with `CCc1nc2ccc(C(=O)NCCCN3CCN(c4ccccc4F)CC3)cc2nc1CC`, `CN(C1CCCCC1)S(=O)(=O)c1ccc2c(c1)c(=O)c(C(=O)NCCCN1CCCC1)cn2C` is lower in “hERG current change (%, negative = inhibition) at 1uM” value: 2.05% for the first, -1.99% for the second.

Compared with `Cc1[nH]c2ccccc2c1SCC(=O)N1CCOCC1`, `CC(NC(=O)Nc1ccc(Cl)cc1)C(c1cccs1)N1CCOCC1` (centres unmarked) is lower in “hERG current change (%, negative = inhibition) at 1uM” value: 8.34% for the first, 7.38% for the second.

Going from `COCCNC(=S)N1CCN(c2ccc(Cl)cc2)CC1` to `COC(=O)c1ccc(N2CCN(C(=O)C3CC3)CC2)c([N+](=O)[O-])c1`, the “hERG current change (%, negative = inhibition) at 1uM” value rises from 1.27% to 5.01%.

Compared with `O=C(COC(=O)[C@@H]1CC(O)CN1S(=O)(=O)c1ccc(Cl)cc1)NC(=O)NCc1ccccc1` (some centres unmarked), `Ic1ccccc1CN[C@@H]1C2CCN(CC2)[C@@H]1C(c1ccccc1)c1ccccc1.O.O=C(O)C(=O)O` is lower in “hERG current change (%, negative = inhibition) at 1uM” value: 1.37% for the first, -18.4% for the second.

Compared with `COc1cccc(C2CC(c3ccc(Cl)cc3)Nc3nc(N)nn32)c1` (centres unmarked), `COC(=O)c1ccc(C2/C(=C(\O)c3cccc(OC)c3)C(=O)C(=O)N2CCCN(C)C)cc1` (centres unmarked) is higher in “hERG current change (%, negative = inhibition) at 1uM” value: -15.8% for the first, 10.2% for the second.

Going from `Br.COc1ccc(N=c2scc(-c3ccc(OC)cc3)n2CCO)cc1` to `COc1ccc(-c2csc(NC(=S)NC(=O)c3ccc(S(=O)(=O)N(C)C)cc3)n2)cc1OC`, the “hERG current change (%, negative = inhibition) at 1uM” value rises from 6.5% to 12.5%.

Compared with `Cc1cccc(NC(=O)c2c([N+](=O)[O-])cnn2C)c1`, `Cc1ccccc1C(=O)Nc1cccc(C(=O)N/N=C/c2cc(Cl)cc([N+](=O)[O-])c2O)c1` is lower in “hERG current change (%, negative = inhibition) at 1uM” value: 18.1% for the first, 7.95% for the second.

Going from `NCCCC[C@H]1CNC(=O)C(=O)N1CCc1cccc2ccccc12` to `O=c1oc2ccccc2cc1-c1nc(-c2cccs2)cs1`, the “hERG current change (%, negative = inhibition) at 1uM” value rises from 7.74% to 9.41%.

Compared with `Cc1cc(NC(=O)c2cc(CC(C)C)on2)n(-c2ccccc2)n1`, `CN(C)S(=O)(=O)c1cccc(NC(=O)c2cccc(S(=O)(=O)N3CCc4ccccc43)c2)c1` is lower in “hERG current change (%, negative = inhibition) at 1uM” value: 12.4% for the first, 9.75% for the second.

First: Cc1nnc(NC(=O)CCC(=O)NCc2ccco2)s1
Second: COc1ccc(C(c2nnnn2C2CCCC2)N2CCN(C(=O)c3ccco3)CC2)cc1OC.Cl (centres unmarked)
The “hERG current change (%, negative = inhibition) at 1uM” value of the first is higher: 5.6% for the first, -0.0835% for the second.

`CC(C)(O)[C@@H]1Cc2c(ccc3ccc(=O)oc23)O1` was tested, and the “hERG current change (%, negative = inhibition) at 1uM” value was 11.6%.
